# Assay results reported in patent US20210138025A1, “CATIONIC PEPTIDES WITH IMMUNOMODULATORY AND/OR ANTI-BIOFILM ACTIVITIES” (priority 2018, published 2021).
# At least one peptide structure holds a part that was inferred or is arguable (an end, a ring closure or a residue). No end group written: not given here.
# What was measured:
# S. aureus (MRSA SAP0017) = assay type: cell-based, Staphylococcus aureus; conditions: SPOT synthesized peptide, ~12.5 μM, clinical MRSA strain, crystal violet assay
# Method: Methods of assessment of anti-biofilm activity: MRSA S. aureus strain SAP0017 biofilm formation was initially analyzed using a static abiotic solid surface assay as described elsewhere (de la Fuente-Nunez et al., 2012) and shown graphically in FIG. 2. Dilutions (1/100) of overnight cultures were incubated in BM2 biofilm-adjusted medium [62 mM potassium phosphate buffer (pH 7), 7 mM (NH4)2SO4, 2 mM MgSO4, 10 μM FeSO4, 0.4% (wt/vol) glucose, 0.5% (wt/vol) Casamino Acids], or a nutrient rich medium such as Tryptic soy broth supplemented with 1% glucose, in polypropylene microtiter plates (Falcon, United States) in the absence (control) or presence of peptide. Peptide was added at time zero (prior to adding the diluted, overnight cultures) in varying concentrations, and the amount biofilm formation was recorded after 22-46 h incubation for most bacteria. To quantify biofilm growth, planktonic cells were removed and biofilm cells adhering to the side of the wells were stained with crystal violet, and absorbance at 595 nm was measured using a microtiter plate reader (Bio-Tek Instruments Inc., United States).
# MCP-1 = MCP-1 chemokine induction in human PBMCs, ELISA (Tables 6, 7; FIGS. 6-9, 13); assay type: cell-based; conditions: SPOT synthesized peptide alone, ~25 μM, PBMCs from 3 human donors; Table 6
# Method: Venous blood (20 ml) from healthy volunteers was collected in Vacutainer® collection tubes containing sodium heparin as an anticoagulant (Becton Dickinson, Mississauga, ON) in accordance with UBC ethical approval and guidelines. Blood was diluted 1:1 with complete RPMI 1640 medium and separated by centrifugation over a Ficoll-Paque® Plus (Amersham Biosciences, Piscataway, N.J., USA) density gradient. White blood cells were isolated from the buffy coat, washed twice in PBS and then resuspended in RPMI 1640 complete medium (containing 10% fetal bovine serum), and the number of peripheral blood mononuclear cells (PBMC) was determined by Trypan blue exclusion. PBMCs (5×10^5) were seeded into 12-well tissue culture dishes (Falcon; Becton Dickinson) at 0.75-1×10^6 cells/ml at 37° C. in 5% CO2. The above conditions were chosen to mimic conditions for circulating blood monocytes entering tissues at the site of infection via extravasation.
# Following incubation of the cells under various treatment regimens, the tissue culture supernatants were centrifuged at 1000×g for 5 min, then at 10,000×g for 2 min to obtain cell-free samples. Supernatants were aliquoted and then stored at −20° C. prior to assay for various chemokines by capture ELISA (eBioscience and BioSource International Inc., CA, USA respectively)
# CCL5 [1] = assay: CCL5 production by peptide alone and in presence of Con A, canine cells (Table 21); assay type: cell-based; conditions: for % CCL5 production relative to that of LPS/ConA: peptide 32 μg/ml
# Method: (§1) A subset of peptides was tested for stimulation of the chemokine CCL5 (Table 21).
# T-lymphocytes [2] = assay: Anti-inflammatory activity towards stimulated T-lymphocytes, bovine (Table 25); assay type: cell-based; conditions: Bovine T-cells, 32 μg/ml of peptide
# [3] = test system: ConA stimulated monocytes; assay: Anti-inflammatory activity in ConA stimulated monocytes, canine (Table 23); assay type: cell-based; conditions: 32 μg/ml peptide, negative = increase
# T-lymphocytes [4] = assay: Anti-inflammatory activity towards stimulated T-lymphocytes, canine (Table 25); assay type: cell-based; conditions: Canine T-cells, 32 μg/ml of peptide
# LPS stimulated monocytes = assay: Anti-inflammatory activity in LPS stimulated monocytes, bovine (Table 23); assay type: cell-based; conditions: 32 μg/ml peptide, negative = increase
# CCL5 [5] = assay: CCL5 production by peptide alone and in presence of LPS, bovine cells (Table 21); assay type: cell-based; conditions: peptide 32 μg/ml
# Method: as §1
substance,measurement,setting,value
"ALAIKVWIKILQ-NH2 [Imax-7, ALAIKVWIKILQ]",% Residual MRSA biofilm growth compared to untreated control,S. aureus (MRSA SAP0017),100%
same,MCP1 production in PBMC,MCP-1,2638 pg/mL
"AVAKWALKLWKQ-NH2 [Peptide 3009, AVAKWALKLWKQ]",% CCL5 production relative to that of LPS/ConA,CCL5 [1]; Canine/ConA Monocyte,117%
same,% CCL5 production relative to that of LPS/ConA,CCL5 [1]; Canine/ConA T-cells,14%
same,anti-inflammatory effect (CCL5) in ConA stimulated T-cells (in words),CCL5 [1]; ConA stimulated T-cells,not as effective
same,% Cytokine decrease in the presence of LPS/ConA: IFNγ,T-lymphocytes [2],55.6%
same,% Cytokine decrease in the presence of LPS/ConA: IL-2,T-lymphocytes [2],89.6%
same,% Cytokine decrease in the presence of LPS/ConA: IL-4,T-lymphocytes [2],67.6%
same,% Cytokine decrease in the presence of LPS/ConA: IL-6,T-lymphocytes [2],−1.6%
same,% Cytokine decrease in the presence of LPS/ConA: IL-13,T-lymphocytes [2],92.7%
same,% Cytokine decrease in the presence of LPS/ConA: TNFα,T-lymphocytes [2],41.1%
same,"% Monocyte cytokine decrease in presence of LPS/ConA, IFNγ",[3],12.9%
same,"% Monocyte cytokine decrease in presence of LPS/ConA, IL-2",[3],31.6%
same,"% Monocyte cytokine decrease in presence of LPS/ConA, IL-4",[3],61.5%
same,"% Monocyte cytokine decrease in presence of LPS/ConA, IL-6",[3],26.0%
same,"% Monocyte cytokine decrease in presence of LPS/ConA, IL-13",[3],12.8%
same,"% Monocyte cytokine decrease in presence of LPS/ConA, TNFα",[3],52.7%
same,% Residual MRSA biofilm growth compared to untreated control,S. aureus (MRSA SAP0017),102%
same,% Cytokine decrease in the presence of LPS/ConA: IFNγ,T-lymphocytes [4],56.2%
same,% Cytokine decrease in the presence of LPS/ConA: IL-2,T-lymphocytes [4],92.7%
same,% Cytokine decrease in the presence of LPS/ConA: IL-4,T-lymphocytes [4],62.5%
same,% Cytokine decrease in the presence of LPS/ConA: IL-6,T-lymphocytes [4],31.9%
same,% Cytokine decrease in the presence of LPS/ConA: IL-13,T-lymphocytes [4],25.1%
same,% Cytokine decrease in the presence of LPS/ConA: TNFα,T-lymphocytes [4],54.2%
same,"% Monocyte cytokine decrease in presence of LPS/ConA, IFNγ",LPS stimulated monocytes,83.1%
same,"% Monocyte cytokine decrease in presence of LPS/ConA, IL-2",LPS stimulated monocytes,13.5%
same,"% Monocyte cytokine decrease in presence of LPS/ConA, IL-4",LPS stimulated monocytes,47.6%
same,"% Monocyte cytokine decrease in presence of LPS/ConA, IL-6",LPS stimulated monocytes,35.3%
same,"% Monocyte cytokine decrease in presence of LPS/ConA, IL-13",LPS stimulated monocytes,82.3%
same,"% Monocyte cytokine decrease in presence of LPS/ConA, TNFα",LPS stimulated monocytes,37.4%
same,% CCL5 production relative to that of LPS/ConA,CCL5 [5]; Bovine/LPS Monocyte,79%
same,% CCL5 production relative to that of LPS/ConA,CCL5 [5]; Bovine/LPS T-cells,77%
same,MCP1 production in PBMC,MCP-1,8635 pg/mL
"GLIIKIIKKRLW-NH2 [IBFmax-15, GLIIKIIKKRLW]",% Residual MRSA biofilm growth compared to untreated control,S. aureus (MRSA SAP0017),59%
same,MCP1 production in PBMC,MCP-1,458 pg/mL
"GRVLKIVWRKGR-NH2 [Mmax-3, GRVLKIVWRKGR]",% Residual MRSA biofilm growth compared to untreated control,S. aureus (MRSA SAP0017),101%
same,MCP1 production in PBMC,MCP-1,3882 pg/mL
"IKWVLRKIVQII-NH2 [IBFmax-17, IKWVLRKIVQII]",% Residual MRSA biofilm growth compared to untreated control,S. aureus (MRSA SAP0017),74%
same,MCP1 production in PBMC,MCP-1,181 pg/mL
"IQLKLIWVKRKW-NH2 [MILBFmax5, IQLKLIWVKRKW]",% Residual MRSA biofilm growth compared to untreated control,S. aureus (MRSA SAP0017),43%
same,MCP1 production in PBMC,MCP-1,715 pg/mL
"IRILVLRKAIIV-NH2 [MILBFmax-9, IRILVLRKAIIV]",% Residual MRSA biofilm growth compared to untreated control,S. aureus (MRSA SAP0017),101%
same,MCP1 production in PBMC,MCP-1,2444 pg/mL
"IVKKVKLIWGVK-NH2 [MILBFmax-13, IVKKVKLIWGVK]",% Residual MRSA biofilm growth compared to untreated control,S. aureus (MRSA SAP0017),98%
same,MCP1 production in PBMC,MCP-1,2220 pg/mL
IVKWIAQWKLVG-NH2 [Imax- 10],MCP1 production in PBMC,MCP-1,4338 pg/mL
"KIQRRAWKQWRK-NH2 [Peptide 3014, KIQRRAWKQWRK]",% Residual MRSA biofilm growth compared to untreated control,S. aureus (MRSA SAP0017),98%
same,MCP1 production in PBMC,MCP-1,5695 pg/mL
"KIWGLLKLGIAL-NH2 [Imax-6, KIWGLLKLGIAL]",% Residual MRSA biofilm growth compared to untreated control,S. aureus (MRSA SAP0017),99%
same,MCP1 production in PBMC,MCP-1,368 pg/mL
KKQKKIWRRILV-NH2 [Mmax- 16],MCP1 production in PBMC,MCP-1,4056 pg/mL
"KRLQWVKVKKIR-NH2 [BFmax-16, KRLQWVKVKKIR]",% Residual MRSA biofilm growth compared to untreated control,S. aureus (MRSA SAP0017),99%
same,MCP1 production in PBMC,MCP-1,4703 pg/mL
"KVQIIKQLIAKK-NH2 [BFmax-7, KVQIIKQLIAKK]",% Residual MRSA biofilm growth compared to untreated control,S. aureus (MRSA SAP0017),100%
same,MCP1 production in PBMC,MCP-1,4713 pg/mL
"KVVWWKVIIKVL-NH2 [BFmax-2, KVVWWKVIIKVL]",% Residual MRSA biofilm growth compared to untreated control,S. aureus (MRSA SAP0017),93%
same,MCP1 production in PBMC,MCP-1,3362 pg/mL
"LIVIQLLKKWWK-NH2 [Peptide 3020, LIVIQLLKKWWK]",% Residual MRSA biofilm growth compared to untreated control,S. aureus (MRSA SAP0017),60%
same,MCP1 production in PBMC,MCP-1,1464 pg/mL
